Among all 310,000 compounds or so, about 2,200 (0.71%) showed an effect of 50% or more. The effect is printed as a negative number. This is one part of the list.
biological target: human ether-à-go-go-related gene (hERG) potassium channel (human, UniProt Q12809); assay: primary screen, population patch clamp on CHO cells stably expressing hERG
Sequence (Q12809 whole entry, looked up): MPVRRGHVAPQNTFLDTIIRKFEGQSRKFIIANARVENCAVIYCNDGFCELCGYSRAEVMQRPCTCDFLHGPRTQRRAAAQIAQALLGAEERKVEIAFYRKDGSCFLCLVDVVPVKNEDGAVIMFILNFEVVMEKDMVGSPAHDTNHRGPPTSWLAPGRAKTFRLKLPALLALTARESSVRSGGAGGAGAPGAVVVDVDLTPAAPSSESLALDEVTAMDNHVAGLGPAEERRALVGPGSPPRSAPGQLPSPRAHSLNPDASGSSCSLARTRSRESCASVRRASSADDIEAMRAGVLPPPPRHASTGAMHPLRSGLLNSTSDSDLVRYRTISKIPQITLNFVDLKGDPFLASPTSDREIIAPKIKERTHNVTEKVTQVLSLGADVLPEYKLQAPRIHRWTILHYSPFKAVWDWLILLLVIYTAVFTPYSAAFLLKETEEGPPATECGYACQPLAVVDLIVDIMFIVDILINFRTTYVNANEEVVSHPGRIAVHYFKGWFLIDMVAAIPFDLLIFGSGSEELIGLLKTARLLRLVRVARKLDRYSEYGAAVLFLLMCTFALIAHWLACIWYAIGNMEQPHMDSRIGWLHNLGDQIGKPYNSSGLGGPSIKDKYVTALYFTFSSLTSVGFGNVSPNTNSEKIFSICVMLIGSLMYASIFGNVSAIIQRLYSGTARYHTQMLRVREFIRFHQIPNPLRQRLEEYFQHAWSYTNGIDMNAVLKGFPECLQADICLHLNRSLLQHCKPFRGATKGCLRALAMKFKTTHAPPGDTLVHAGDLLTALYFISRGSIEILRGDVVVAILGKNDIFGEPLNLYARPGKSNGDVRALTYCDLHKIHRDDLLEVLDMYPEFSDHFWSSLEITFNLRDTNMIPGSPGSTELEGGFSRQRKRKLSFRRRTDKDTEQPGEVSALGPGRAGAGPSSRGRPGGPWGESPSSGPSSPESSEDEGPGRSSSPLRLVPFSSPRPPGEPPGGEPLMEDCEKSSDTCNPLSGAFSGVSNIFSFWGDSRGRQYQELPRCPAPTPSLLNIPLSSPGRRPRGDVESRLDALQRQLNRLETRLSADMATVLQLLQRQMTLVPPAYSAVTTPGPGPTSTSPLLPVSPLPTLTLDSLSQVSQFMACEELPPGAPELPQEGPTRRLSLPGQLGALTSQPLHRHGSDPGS

| SMILES | hERG current change (%, negative = inhibition) at 1uM [%] |
| --- | --- |
| COc1ccc(C(=O)Nc2nc3c(s2)CCCC3)cc1S(=O)(=O)N1CCCc2ccccc21 | -1.71 |
| CC(=O)O.Oc1[nH]c2ccccc2c1N=Nc1ncnc2c1oc1ccccc12 | 10.4 |
| C#CCNC(=O)c1ccc(OCc2ccccc2)cc1Cl | 7.16 |
| Cn1ncc2c(=O)n(CC(=O)NC34CC5CC(CC(C5)C3)C4)cnc21 | 16.4 |
| CCC(=O)NC1OC(CO)C(O)C(O)C1O (stereo not shown) | 15.1 |
| CC1CCCC(C)N1/N=C/c1ccccc1Br (stereo not shown) | 3.55 |
| O=C(CC1C(=O)NCCN1Cc1cccc(F)c1)NC1CCCCC1 (stereo not shown) | 5.93 |
| Cc1cc(Br)c2nc3c(c(C(=O)O)c2c1)CCCCC3 | 7.18 |
| O=C(NCc1cccs1)C1CCN(S(=O)(=O)c2cccs2)CC1 | -8.36 |
| O=C(NCc1cccc(C(F)(F)F)c1)C1CC(c2ccccc2[N+](=O)[O-])=NO1 (stereo not shown) | 1.35 |
| Cc1cccc(Cn2cnc3ccccc32)c1 | 6.04 |
| COc1ccc(CN(C)C(=O)C23CC4CC(CC(Cl)(C4)C2)C3)c(OC)c1OC | 11.2 |
| O=C(CS(=O)(=O)c1ccccc1)c1cc2ccccc2oc1=O | 11.6 |
| COc1cc(C2CC(=O)c3cnc(NC(C)=O)nc3C2)cc(OC)c1OC (stereo not shown) | 5.17 |
| COC(=O)C1CCN(C(=O)Cn2nnc(-c3cccc(F)c3)n2)CC1 | 9.67 |
| CCOC(=O)c1[nH]c(C)c(C(=O)c2cc(F)ccc2F)c1C | -1.1 |
| N#C/C=C/C(=C\Nc1ccc(Cl)cc1)S(=O)(=O)c1ccccc1 | 14.4 |
| Cc1cc(C)c(S(=O)(=O)N2CCN(C(=O)c3ccc4c(c3)OCO4)CC2)c(C)c1 | 3.72 |
| O=S(=O)(Oc1ccccc1C(=S)N1CCOCC1)c1ccc(Cl)cc1 | 10.3 |
| CCN1CCN(C(c2cccc(OC)c2)c2sc3nc(C)nn3c2O)CC1 (stereo not shown) | 5.48 |
| O=C(O)Cn1cc(/C=N/NC(=O)c2cc3cc(Br)ccc3o2)c2ccccc21 | 7 |
| COC(=O)[C@]1(C)C[C@H]1[C@H](NP(=O)(c1ccccc1)c1ccccc1)c1ccccc1 | 7.6 |

| SMILES | hERG current change (%, negative = inhibition) at 1uM [%] |
| --- | --- |
| CCCOC(=O)c1ccc(OCC(O)CN2CCN(C(=O)c3ccccc3)CC2)cc1.Cl (stereo not shown) | -19.5 |
| Cc1ccccc1N1CCN(C2CCCN(C(=O)c3noc4c3CCCC4)C2)CC1 (stereo not shown) | -17.7 |
| COCC(C)NS(=O)(=O)c1ccc(C)cc1 (stereo not shown) | 7.26 |
| OCc1cn(-c2ccccc2)nc1-c1ccc(-c2nn(-c3ccccc3)cc2CO)cc1 | 15 |
| CCCCN(C1CCS(=O)(=O)C1)S(=O)(=O)c1ccc(OC)c(OC)c1 (stereo not shown) | 10.9 |
| CN(C)c1ccc(C2C3=C(CCCC3=O)OC3=C2C(=O)CCC3)cc1 | 13.5 |
| O=C(NC(=S)Nc1cc(S(=O)(=O)N2CCOCC2)ccc1N1CCOCC1)c1ccco1 | 0.416 |
| CCCOP(=O)(c1ccc(N(C)C)cc1)C(O)c1ccccc1OC (stereo not shown) | 11.6 |
| Cn1cccc1C(=O)OCC(=O)NC1CCS(=O)(=O)C1 (stereo not shown) | 4.52 |
| CC(C)CCNC(=O)C(=O)NC1CCCC1 | 5.33 |
| Cc1cc(=O)oc2cc(OC(C)C(=O)Nc3ccc(N4CCOCC4)cc3)ccc12 (stereo not shown) | 2.41 |
| COc1ccccc1C(=O)NNC(=O)c1ccc(C)cc1 | 6.68 |
| Nc1cc(-c2ccc(Cl)cc2)nn1S(=O)(=O)c1cccc2nsnc12 | 8.97 |
| CCCCC[C@H]1CN(Cc2ccc(OC)cc2)C(=O)[C@@H]1CC(=O)NCc1ccccc1 | 4.82 |
| CC(=O)Nc1ccc(NC(=O)Nc2ccc(C)c(C)c2)cc1 | -4.99 |
| Cc1ccc(NC(=O)[C@@H]2CCCN2C(=O)c2cccs2)cc1S(=O)(=O)N1CCCCC1 | 8.35 |
| Cc1ccccc1N(CC(=O)NCc1ccc2c(c1)OCO2)C(=O)CCC(=O)Nc1ccccn1 | 6.43 |
| CCCc1cc2c(=O)n(NC(=O)c3nn(C)cc3[N+](=O)[O-])c(C)nc2s1 | 19 |
| COc1cccc(-c2noc(C3CCCN(C(=O)CC(C)(C)C)C3)n2)c1 (stereo not shown) | 4.73 |
| COc1cc(/C=N/Nc2nc(C)cc(C)n2)ccc1OC(=O)c1ccco1 | 6.23 |
| Cc1cc(=O)oc2cc(OC(=O)CCCCCN3C(=O)c4ccccc4C3=O)ccc12 | 9.37 |
| COC(=O)CN(c1ccc(C)cc1)S(=O)(=O)c1ccc(F)cc1 | 0.42 |

| SMILES | hERG current change (%, negative = inhibition) at 1uM [%] |
| --- | --- |
| O=C(COC(=O)CCOc1ccccc1)Nc1ccc(Cl)cn1 | 5.03 |
| COc1ccc(N(CC(=O)NCc2ccco2)S(=O)(=O)c2ccc(C)cc2)cc1OC | 11.8 |
| O=C(COC(=O)C1CCN(c2ccc(C(F)(F)F)cn2)CC1)c1cccc(Br)c1 | 21.3 |
| CCc1nc2cccnc2n1-c1ccc(CC(=O)O)cc1 | 13.3 |
| Cc1ccc(-c2csc(NC(=O)CSc3nc4ccccc4o3)n2)cc1 | 9.89 |
| O=C(CSc1ncn[nH]1)Nc1ccc2c(c1)OCCO2 | -23.2 |
| CCC(=Nc1cccc(C(F)(F)F)c1)c1c(O)n(C)c(=O)n(C)c1=O | 8.92 |
| NS(=O)(=O)c1ccc(NN=C2CCCCC2)c([N+](=O)[O-])c1 | 7.06 |
| O=C(COC(=O)CCC(=O)c1cccs1)Nc1cccc(S(=O)(=O)N2CCOCC2)c1 | 1.17 |
| CCNc1nc(SCc2ccccc2)nc(N2CCOCC2)n1 | 6.9 |
| O=C(c1cccs1)N1N=C(c2ccc(O)cc2)CC1c1ccccc1 (stereo not shown) | 11.4 |
| O=C(COC(=O)C12CC3CC(CC(C3)C1)C2)NCCc1ccccc1 | -0.192 |
| O=C(Nc1nc2ccc(F)cc2s1)c1cccs1 | 5.29 |
| Cc1ccc(-c2cc(C(=O)NCc3ccccn3)no2)cc1 | 6.43 |
| CCOC(=O)c1ccc(NCc2ccc(N(C)C)cc2)cc1 | 9.37 |
| CCOc1ccc(OCC(=O)OCC(=O)N(CC(C)C)c2c(N)n(Cc3ccccc3)c(=O)[nH]c2=O)cc1 | 5.08 |
| Cc1ccc(-c2cc(-c3ccc(C)cc3)[n+](-c3ccc(C(=O)O)cc3)c(-c3ccc(C)cc3)c2)cc1.[O-][Cl+3]([O-])([O-])[O-] | 17.7 |
| O=C1CCCCC1 | 9.22 |
| COc1cc2c(cc1NC(=O)c1ccccc1F)CCCC2 | 14.9 |
| CNc1cc([N+](=O)[O-])ccc1N/C=C/C(=O)c1ccc2c(c1)OCO2 | 11.7 |
| CCCCN1C(=O)c2cccc3cc(O)cc(c23)C1=O | 3.95 |
| Cl.O=C(CCN1CCC(c2ccccc2)C1)c1ccccc1 (stereo not shown) | -22.8 |

| SMILES | hERG current change (%, negative = inhibition) at 1uM [%] |
| --- | --- |
| CN(C)c1ccc(/C=N/NC(=O)CCCO)cc1 | 12.6 |
| NS(=O)(=O)c1cc2c(cc1Cl)NC(c1ccccc1OCC(=O)O)NS2(=O)=O (stereo not shown) | 16.8 |
| O=C(CCO)c1ccc(O)cc1 | 17.1 |
| CCn1c2ccccc2c2cc(NC(=O)CC(C)=O)ccc21 | 12.6 |
| O=C(Nc1cccc(S(=O)(=O)N2CCCC2)c1)c1cccnc1 | 10.7 |
| CC(NC(=O)Cc1ccsc1)c1ccc(S(N)(=O)=O)cc1 (stereo not shown) | 11.7 |
| COc1ccc(/C=N/NC(=O)c2ccc(OC)c(OC)c2)cc1COc1c(F)c(F)c(F)c(F)c1F | 13.4 |
| C/C(=N\O)C(C)(C)NC(=O)Nc1ccc(Cl)cc1 | 8.92 |
| COc1cc(/C=N/Nc2ccc(Cl)cc2)ccc1OC(=O)c1cccs1.Cl | 8.87 |
| O=C(N/C(=C/c1ccc(Br)cc1)c1nc2ccccc2[nH]1)c1ccco1 | 4.61 |
| CC12C=CC3(CN(Cc4ccccc4)C(=O)C3C1C(=O)NC1CC1)O2 (stereo not shown) | 14.3 |
| O=C(NCCCN1CCOCC1)c1cc2ccccc2oc1=O | -8.41 |
| NC(=O)CSc1nc2ccccc2n1Cc1ccccc1F | 1.8 |
| CC(C)N(C(=O)Cn1cc(S(=O)(=O)CC(=O)N2CCOCC2)c2ccccc21)C(C)C | -0.709 |
| Cc1ccc(C2C(C(=O)c3ccco3)=C(O)C(=O)N2c2nnc(C)s2)cc1 (stereo not shown) | 6.73 |
| CC1=C(C(=O)Nc2ccc(Cl)cc2)C(c2cccs2)n2nnnc2N1 (stereo not shown) | -13.9 |
| Cc1cccc(NC(=O)CCCn2c(=S)[nH]c3ccccc3c2=O)c1 | 6.15 |
| COc1ccccc1NS(=O)(=O)c1ccc(C(=O)OCC(=O)NCc2ccco2)cc1 | 2.97 |
| Cc1ccccc1CN1CCCOCCS1(=O)=O | 1.17 |
| COc1ccccc1N1CCN(C2CCCN(Cc3c(F)cccc3F)C2)CC1 (stereo not shown) | -1.95 |
| COc1cc(S(=O)(=O)N2CCOCC2)ccc1NC(=O)c1cc2c(s1)CCC2 | 3.78 |
| Cn1c(=O)c2c(nc(CN3CCc4ccccc4C3)n2Cc2cccc(Cl)c2)n(C)c1=O | -0.691 |

Source: paper PMC4336329 (PLoS ONE, 2015)
